Experimental data as given in PubChem BioAssay AID1460 (National Center for Advancing Translational Sciences (NCATS), 2008).
About 5,800 (2.1%) of roughly 270,000 compounds were called active. This list was built around the results that the source calls inconclusive (neither active nor inactive); the mix of calls is not that of the screen. The call rests on the fitted dose curve; in most records, active means well fitted inhibition curve with a large enough effect; inconclusive means small, poorly fitted or top-dose-only effect; inactive means flat fitted curve, though single readings scatter. Where the call is inconclusive, the potency comes from a doubtful curve fit.

What follows are molecules tested against Microtubule-associated protein tau (Homo sapiens) (UniProt P10636) (assay: qHTS for Inhibitors of Tau Fibril Formation, Thioflavin T Binding). Details: recombinant tau K18 P301L, heparin-induced fibrillization, ThT fluorescence; series mostly up to 57.4 µM; activity, negative = inhibition: at the top concentration.
UniProt P10636, sequence (P10636 whole entry, looked up): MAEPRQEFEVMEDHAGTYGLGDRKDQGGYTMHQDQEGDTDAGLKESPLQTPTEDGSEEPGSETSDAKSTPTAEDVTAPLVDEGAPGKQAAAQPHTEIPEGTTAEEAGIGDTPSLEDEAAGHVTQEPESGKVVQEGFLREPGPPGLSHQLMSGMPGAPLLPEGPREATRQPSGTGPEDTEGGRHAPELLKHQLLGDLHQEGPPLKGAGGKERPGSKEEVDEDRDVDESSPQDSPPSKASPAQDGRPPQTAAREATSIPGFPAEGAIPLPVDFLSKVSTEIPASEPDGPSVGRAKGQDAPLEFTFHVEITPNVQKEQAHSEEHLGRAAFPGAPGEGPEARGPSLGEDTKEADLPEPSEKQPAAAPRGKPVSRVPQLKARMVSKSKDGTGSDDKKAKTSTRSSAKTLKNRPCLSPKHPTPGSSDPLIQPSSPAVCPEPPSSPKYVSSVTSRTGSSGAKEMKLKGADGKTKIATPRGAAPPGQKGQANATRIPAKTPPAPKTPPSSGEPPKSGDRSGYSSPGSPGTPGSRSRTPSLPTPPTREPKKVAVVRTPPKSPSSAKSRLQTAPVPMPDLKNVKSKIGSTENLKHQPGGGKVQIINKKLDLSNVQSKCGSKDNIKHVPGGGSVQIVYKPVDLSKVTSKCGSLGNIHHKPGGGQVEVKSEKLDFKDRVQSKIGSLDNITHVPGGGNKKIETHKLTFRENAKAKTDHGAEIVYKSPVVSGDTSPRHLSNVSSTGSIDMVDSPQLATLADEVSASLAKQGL
Procedure, shortened: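 ThT emission at 510 nm, taken 1 hr after adding 30 uM dye, quantifies aggregates formed when 20 uM heparin acts on human tau K18 P301L for 6 hr at 37 C.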
Further: nearly all actives have a fitted effect of over 55% in size.
On the % scale 0 is the no-effect control and ±100 the full control effect; potency means the concentration at half of the fitted maximal effect; tags describe the fitted curve by direction and shape.

**Q.** For `CCn1nnnc1SCC(=O)Nc1nc2ccc(OC)cc2s1`, which Potency is on record?
**A.** inconclusive: 15.8 µM [inhibitor, partial curve]

**Q.** `COc1ccccc1NC(=O)CSc1nc(O)cc(=O)[nH]1` was tested. Which Potency did it give?
**A.** inconclusive: 22.4 µM [inhibitor, partial curve]

**Q.** Which Potency does the source give for `O=C(N/N=C/c1ccc2c(c1)OCO2)c1ccc(COc2cccc3cccnc23)cc1` here?
**A.** inconclusive: 0.282 µM [inhibitor, full curve]

**Q.** With `O=C(CCn1c(=S)[nH]c2ccccc2c1=O)NCC1CCCO1` (centres undefined) as the molecule, how does the “activity, negative = inhibition” value read?
**A.** inactive: 5.47%

**Q.** `O=[N+]([O-])C(/C=C(\Cl)[N+](=O)[O-])=C1N(Cc2ccc(Cl)nc2)CCN1Cc1ccc(Cl)nc1` was tested. Which Potency did it give?
**A.** inconclusive: 12.6 µM [inhibitor, partial curve]

**Q.** With `Cc1nnc(SCC(=O)Nc2ccc(N3CCOCC3)cc2)n1-c1ccccc1` as the molecule, how does the “activity, negative = inhibition” value read?
**A.** inactive: -12.4%

**Q.** Which Potency does the source give for `Nc1nc(Nc2ccccc2)nc(NCCO)c1[N+](=O)[O-]` here?
**A.** inconclusive: 35.5 µM [inhibitor, single point]

**Q.** With `O=c1c(/C=N/O)coc2ccc3ccccc3c12` as the molecule, how does the Potency read?
**A.** inconclusive: 14.1 µM [inhibitor, single point]

**Q.** How did the Potency turn out when `O=C1C(=O)N(Cc2ccco2)C(c2cccs2)/C1=C(\O)c1cccc([N+](=O)[O-])c1` (centres undefined) was run?
**A.** inconclusive: 31.6 µM [inhibitor, partial curve]

**Q.** For `O=C(c1cc2c(=O)n3ccccc3nc2s1)N1CCc2ccccc2C1`, which Potency is on record?
**A.** inconclusive: 15.8 µM [inhibitor, partial curve]

**Q.** For `CCOC(=O)N1CCc2c(sc3c2c(=O)n(Cc2ccccc2)c(=O)n3CC(=O)Nc2ccc(F)cc2)C1`, which “activity, negative = inhibition” value is on record?
**A.** inactive: 7.65%

**Q.** For `CCN(CC)CCOC(=O)c1ccc(NC(=O)/C=C/c2cccs2)cc1`, which Potency is on record?
**A.** inconclusive: 28.2 µM [activator, partial curve, poor fit]

**Q.** Which Potency does the source give for `O=C(CCCN1C(=O)/C(=C/c2cccc(Br)c2)SC1=S)Nc1ccccn1` here?
**A.** inconclusive: 11.2 µM [inhibitor, partial curve]

**Q.** With `CCc1cc2c(=O)nc3n(c2s1)Cc1ccccc1/C3=C(/O)c1cccc([N+](=O)[O-])c1` as the molecule, how does the Potency read?
**A.** inconclusive: 28.2 µM [inhibitor, partial curve, poor fit]

**Q.** For `Cc1nc(NC(C)c2ccccc2)c2c3c(sc2n1)CCC3` (centres undefined), which Potency is on record?
**A.** inconclusive: 28.2 µM [inhibitor, single point]

**Q.** With `Cc1cccc(/C=N/NC(=O)Cn2nc(C)cc2C)n1` as the molecule, how does the “activity, negative = inhibition” value read?
**A.** inactive: 1.72%

**Q.** `Cn1c(SCC(=O)c2ccccc2)nc2cccnc21` was tested. Which Potency did it give?
**A.** inconclusive: 28.2 µM [inhibitor, single point]

**Q.** Which “activity, negative = inhibition” value does the source give for `O=c1[nH]c(CN2CCN(S(=O)(=O)c3ccc4ccccc4c3)CC2)nc2ccccc12` here?
**A.** inactive: 0.686%

**Q.** `COC(=O)c1ccc(-n2nnnc2SCC(=O)Nc2cc(OC)ccc2OC)cc1` was tested. Which Potency did it give?
**A.** inconclusive: 20 µM [inhibitor, single point]

**Q.** For `COC(=O)c1ccc(NC(=S)N2CCN(Cc3ccccc3)CC2)cc1`, which “activity, negative = inhibition” value is on record?
**A.** inactive: -2.42%

**Q.** Which Potency does the source give for `Cc1c(C(=O)OC(C)C)sc(NC(=O)C2CCCO2)c1C(=O)OC(C)C` (centres undefined) here?
**A.** inconclusive: 35.5 µM [inhibitor, partial curve, poor fit]

**Q.** For `Cc1ccc(S(=O)(=O)Nc2nc3ccccc3nc2Nc2cccc(S(=O)(=O)N3CCCC3)c2)cc1`, which Potency is on record?
**A.** inconclusive: 17.8 µM [inhibitor, partial curve]

**Q.** For `c1ccc2c3nnc4n(c-3nc2c1)CCCS4`, which Potency is on record?
**A.** inconclusive: 28.2 µM [inhibitor, partial curve]

**Q.** For `COc1c(/C=N/NC(N)=S)c(C)nn1-c1ccccc1`, which Potency is on record?
**A.** inconclusive: 11.2 µM [inhibitor, partial curve]

**Q.** `O=[N+]([O-])c1ccc2nc(NCCCO)nc(-c3ccccc3)c2c1` was tested. Which “activity, negative = inhibition” value did it give?
**A.** inactive: -2.96%

**Q.** `N#CC1=C(N)C2=C(N3CCCCC3)CCCC2C1(C#N)C#N` (centres undefined) was tested. Which Potency did it give?
**A.** active: 31.6 µM

**Q.** With `CCn1c(=O)c(=O)[nH]c2cc(C(=O)N3CCN(c4ccccc4F)CC3)ccc21` as the molecule, how does the “activity, negative = inhibition” value read?
**A.** inactive: -7%

**Q.** For `Cc1ccc(C)c(CN2C(=O)c3ccccc3S(=O)c3ccc(C(=O)N4CCCCC4)cc32)c1` (centres undefined), which “activity, negative = inhibition” value is on record?
**A.** inactive: 3.45%

**Q.** `COc1cccc(C(=O)CSc2nnc(CNc3nc(-c4ccccc4)cs3)n2C)c1` was tested. Which Potency did it give?
**A.** inconclusive: 15.8 µM [inhibitor, partial curve, poor fit]

**Q.** How did the “activity, negative = inhibition” value turn out when `CCOC(=O)c1cc(-c2ccc(C)cc2)n(CCC(=O)NCCCOC)c1C` was run?
**A.** inactive: -3.22%

**Q.** With `COc1ccc(N2CCN(C(=O)c3ccccc3)CC2)c([N+](=O)[O-])c1` as the molecule, how does the Potency read?
**A.** inconclusive: 22.4 µM [inhibitor, single point]

**Q.** `COc1cccc(C(=O)Nc2nnc(S(=O)(=O)N3CCCc4ccccc43)s2)c1` was tested. Which Potency did it give?
**A.** inconclusive: 11.2 µM [inhibitor, partial curve]

**Q.** Which Potency does the source give for `Cc1cccc(C)c1NC(=O)Cn1cc(C(=O)C2CC2)c2ccccc21` here?
**A.** inconclusive: 17.8 µM [inhibitor, single point]

**Q.** Which Potency does the source give for `Cc1ccc(C)c(Nc2nn3c(=O)c4ccc(C(=O)NCc5ccccc5)cc4nc3s2)c1` here?
**A.** inconclusive: 14.1 µM [activator, partial curve]

**Q.** `CCOC(=O)c1cccc(NC(=O)Nc2c(C)n(C)n(-c3ccccc3)c2=O)c1` was tested. Which “activity, negative = inhibition” value did it give?
**A.** inactive: -7.38%

**Q.** `Cc1cccc(-n2ncc3c(NNC(=O)c4ccccc4Cl)ncnc32)c1` was tested. Which Potency did it give?
**A.** inconclusive: 1.78 µM [inhibitor, full curve, poor fit]

**Q.** Which Potency does the source give for `O=C1c2cccc3c(O)ccc(c23)C(=O)N1Cc1ccco1` here?
**A.** inconclusive: 12.6 µM [inhibitor, partial curve]

**Q.** How did the “activity, negative = inhibition” value turn out when `COc1ccc(/C=N/NC2=NCCCCC2)cc1` was run?
**A.** inactive: -7.91%

**Q.** For `COc1cc(NC(=O)Cc2noc3ccccc23)cc(OC)c1OC`, which Potency is on record?
**A.** inconclusive: 11.2 µM [inhibitor, partial curve]

**Q.** `O=C(/C=C/c1ccc(S(=O)(=O)N2CCOCC2)cc1)NC(=S)Nc1ccc(N2CCOCC2)cc1` was tested. Which Potency did it give?
**A.** active: 25.1 µM

**Q.** How did the Potency turn out when `c1cncc(-c2noc(-c3cccc4ccccc34)n2)c1` was run?
**A.** inconclusive: 39.8 µM [inhibitor, partial curve]

**Q.** With `COC(=O)c1ccc(C(=O)OC)c(NC(=O)CSCc2ccc(Br)cc2)c1` as the molecule, how does the “activity, negative = inhibition” value read?
**A.** inactive: -12.6%

**Q.** `Cc1cccc(NC(=O)c2c(NC(=O)c3ccccc3)sc3c2CCC3)c1` was tested. Which “activity, negative = inhibition” value did it give?
**A.** inactive: -8.12%

**Q.** For `CC/C=C\CC[C@H](O)C1=CCCCC1=O`, which activity, negative = inhibition is on record?
**A.** inactive: -16.3% [at 11.5 µM]
